Screen size: about 350,000 compounds; about 31,000 (8.9%) were called active. This list was built around the results that the source calls inconclusive (neither active nor inactive); the mix of calls is not that of the screen. Calls follow the shape of the dose curve; as a rule, active = well fitted inhibition curve with a large enough effect; inconclusive = small, poorly fitted or top-dose-only effect; inactive = no such curve, though single readings can be large or run the other way. Where the call is inconclusive, the potency comes from a doubtful curve fit.
The compounds below were run against Histone-lysine N-methyltransferase EHMT2 (Homo sapiens) (UniProt Q96KQ7) (assay: qHTS Assay for Inhibitors of Histone Lysine Methyltransferase G9a). Details: G9a H3K9 monomethylation, AlphaScreen, 2 h; activity, negative = inhibition: at 59 µM (top of the series) unless noted.
Method in brief: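 Compounds were preincubated with 20 nM G9a for 15 min, after which biotinylated H3K9 peptide (500 nM) and SAM (20 uM) started a 2 h room-temperature reaction. Monomethylated product was quantified by antibody-based AlphaScreen chemiluminescence.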
% is scaled to controls: 0 for no effect and ±100 for the full control effect; potency is read from the fitted curve at half-maximal effect; tags tell the direction and shape of the fitted curve.
Also: nearly all actives have a fitted effect of over 75% in size.

Sequence of UniProt Q96KQ7 (Q96KQ7 whole entry, looked up): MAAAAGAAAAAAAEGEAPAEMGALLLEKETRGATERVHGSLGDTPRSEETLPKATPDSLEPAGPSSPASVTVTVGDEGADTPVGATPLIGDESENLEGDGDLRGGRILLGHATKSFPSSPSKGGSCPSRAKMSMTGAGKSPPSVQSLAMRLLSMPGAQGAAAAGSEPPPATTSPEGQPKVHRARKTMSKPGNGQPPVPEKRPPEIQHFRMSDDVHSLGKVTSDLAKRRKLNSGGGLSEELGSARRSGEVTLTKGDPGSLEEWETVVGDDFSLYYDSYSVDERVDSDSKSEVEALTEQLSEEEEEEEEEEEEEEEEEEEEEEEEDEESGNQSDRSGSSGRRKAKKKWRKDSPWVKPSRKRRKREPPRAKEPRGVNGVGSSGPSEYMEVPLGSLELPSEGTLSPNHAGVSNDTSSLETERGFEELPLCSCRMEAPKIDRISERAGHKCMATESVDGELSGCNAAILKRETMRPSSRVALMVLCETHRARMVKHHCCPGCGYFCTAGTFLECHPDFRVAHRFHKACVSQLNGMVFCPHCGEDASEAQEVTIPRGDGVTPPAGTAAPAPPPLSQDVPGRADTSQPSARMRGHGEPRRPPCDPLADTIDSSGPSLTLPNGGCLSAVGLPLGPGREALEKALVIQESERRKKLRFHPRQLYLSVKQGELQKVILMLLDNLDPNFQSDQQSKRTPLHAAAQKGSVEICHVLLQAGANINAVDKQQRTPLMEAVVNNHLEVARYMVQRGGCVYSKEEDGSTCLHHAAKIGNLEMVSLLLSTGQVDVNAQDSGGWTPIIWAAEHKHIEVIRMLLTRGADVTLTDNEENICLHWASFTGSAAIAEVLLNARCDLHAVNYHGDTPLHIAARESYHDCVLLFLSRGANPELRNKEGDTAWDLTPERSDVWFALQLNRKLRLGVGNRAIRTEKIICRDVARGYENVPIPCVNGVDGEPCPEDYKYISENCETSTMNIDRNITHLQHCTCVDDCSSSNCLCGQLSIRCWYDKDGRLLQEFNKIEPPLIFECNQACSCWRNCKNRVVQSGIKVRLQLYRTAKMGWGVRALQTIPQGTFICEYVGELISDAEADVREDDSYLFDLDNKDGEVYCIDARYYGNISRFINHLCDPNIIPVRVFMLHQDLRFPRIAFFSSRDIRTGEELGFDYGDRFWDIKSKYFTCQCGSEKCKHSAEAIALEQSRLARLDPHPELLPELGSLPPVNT

| Structure (SMILES) | Potency | activity, negative = inhibition |
| --- | --- | --- |
| COc1ccc(-c2cc3nnc(-c4ccccc4)nc3s2)cc1 | inconclusive: 39.8 µM [inhibitor, single point] |  |
| COc1ccc(OC)c(CN2CCN(C(=O)c3ccc(F)cc3)CC2)c1 | active: 31.6 µM |  |
| CCC(C)(C)C1CCc2c(sc(NC(=O)c3ccccc3C(=O)O)c2C#N)C1 (stereo not drawn) | inconclusive: 44.7 µM [inhibitor, partial curve] |  |
| Cc1nc2ccccn2c1/C(O)=C1\C(=O)C(=O)N(CCN(C)C)C1c1ccco1 (stereo not drawn) | inconclusive: 44.7 µM [inhibitor, single point] |  |
| CCOC(=O)Cn1c(=O)n(Cc2ccc(C)cc2)c(=O)c2cccnc21 |  | inactive: 9.23% [at 2.33 µM] |
| COc1ccc(NC(=O)CN(C)C(C)C(=O)N2CCCCC2)cc1 (stereo not drawn) | inconclusive: 1.78 µM [inhibitor, partial curve, poor fit] |  |
| C[C@]12CC[C@@H]3c4ccc(O)cc4CC[C@H]3[C@@H]1CC[C@@H]2OC(=O)CCC(=O)O | inconclusive: 39.8 µM [inhibitor, single point] |  |
| CC(C)(C)c1ccc(C(=O)NCc2ccc(Cl)cc2)cc1 | inconclusive: 6.31 µM [inhibitor, single point] |  |
| Cn1c(=O)cc(OCC(=O)Nc2ccccn2)c2ccccc21 | inconclusive: 89.1 µM [inhibitor, partial curve, poor fit] |  |
| Nc1c(C(=O)Nc2cccc(C(F)(F)F)c2)c2ccccn2c1C(=O)c1ccccc1 |  | inactive: 8.27% |
| CC(C)(C)c1nc2ccccc2[nH]1 | inconclusive: 89.1 µM [inhibitor, single point] |  |
| CCn1c(C)cc(C=C2C(=O)c3ccccc3C2=O)c1C | inconclusive: 50.1 µM [inhibitor, partial curve, poor fit] |  |
| Cc1cccc(-c2nn(-c3ccccc3)cc2C(=O)NCC(c2cccs2)N2CCOCC2)c1 (stereo not drawn) | inconclusive: 50.1 µM [inhibitor, partial curve, poor fit] |  |
| CCOC(=O)NC(NC(=S)Nc1ccccc1OC)C(Cl)(Cl)Cl (stereo not drawn) | inconclusive: 3.16 µM [inhibitor, full curve, poor fit] |  |
| COc1ccc(-c2nncnn2)cc1 | inconclusive: 39.8 µM [inhibitor, single point] |  |
| Cc1ccc2c(c1)N(C(=O)Nc1cccc3c1CCCC3)CC(C)O2 (stereo not drawn) |  | inactive: -1.89% |
| COc1ccc(Nc2ncnc3sccc23)cc1 | active: 44.7 µM |  |
| O=C1OC(C(=O)Nc2nccs2)Cc2ccccc21 (stereo not drawn) |  | inactive: -46.8% |
| CCCn1c(O)c(N=N)c2ccccc21 |  | inactive: -36.2% [at 102 µM] |
| CCC1Nc2cc(Cl)c(S(N)(=O)=O)cc2S(=O)(=O)N1 (stereo not drawn) |  | inactive: 3.04% |
| Nc1ccc(S(=O)(=O)c2ccccc2)nc1 |  | inactive: 22.2% [at 2.33 µM] |
| Cc1ccccc1NC(=O)Cc1nc(COC(=O)c2cccnc2Cl)cs1 |  | inactive: -9.65% |
| O=[N+]([O-])c1ccc(CSc2ccccn2)cc1 |  | inactive: 1.74% [at 102 µM] |
| CCOc1ccc(OCC(=O)OCn2c(SC)nnc(C)c2=O)cc1 | inconclusive: 79.4 µM [inhibitor, single point] |  |

| Structure (SMILES) | Potency | activity, negative = inhibition |
| --- | --- | --- |
| COc1ccccc1C(=O)NCCC(=O)NCC(c1ccccc1)N(C)C (stereo not drawn) |  | inactive: 43.8% [at 102 µM] |
| Cc1ccc2oc(-c3cc(NC(=O)/C=C/c4ccco4)ccc3Cl)nc2c1 | inconclusive: 4.47 µM [inhibitor, full curve, poor fit] |  |
| CCOCCCN(C(=O)c1snc(C(N)=O)c1N)C(C(=O)NC(C)(C)C)c1ccc(Cl)cc1 (stereo not drawn) | inconclusive: 0.631 µM [inhibitor, full curve] |  |
| CCC(Sc1nc(C)cc(C)n1)C(=O)Nc1ccc(S(N)(=O)=O)cc1 (stereo not drawn) | inconclusive: 50.1 µM [inhibitor, partial curve] |  |
| Cc1onc(-c2ccccc2Cl)c1C(=O)N1CCN(c2cccc(Cl)c2)CC1 | inconclusive: 39.8 µM [inhibitor, partial curve, poor fit] |  |
| CCN1CC(CN(C)Cc2nc(-c3ccco3)oc2C)CC1=O (stereo not drawn) | active: 79.4 µM |  |
| Cc1nc(-c2ccccc2)cn(O)c1=O |  | inconclusive: -51.5% [inhibitor] [at 12.7 µM] |
| COc1ccc(F)cc1S(=O)(=O)N1CCN(c2ccccn2)CC1 | inconclusive: 70.8 µM [inhibitor, single point] |  |
| COc1cccc(C(=O)N2CCN(C3CCN(Cc4ccccc4)CC3)CC2)c1OC | inconclusive: 3.98 µM [inhibitor, single point] |  |
| NN/C(=C\[N+](=O)[O-])Nc1ccccc1 | active: 20 µM |  |
| CCN(CC(=O)Nc1ccc(NC(C)=O)cc1)C(=O)c1cccc(Oc2ccccc2)c1 |  | inactive: -3.31% [at 102 µM] |
| C[C@@H]([C@H](O)c1ccccc1)N(C)C(=S)Nc1ccccc1 |  | inactive: 18% [at 102 µM] |
| CSc1nnc(C)c(/C=C/Nc2ccc(C)cc2)n1 |  | inactive: 5.73% |
| C/C(=N\Nc1nc2ccccc2[nH]1)c1ccc2c(c1)OCO2 | inconclusive: 79.4 µM [inhibitor, single point] |  |
| CC(=O)Nc1ccc(N=Cc2ccc[nH]2)cc1 | inconclusive: 22.4 µM [inhibitor, partial curve, poor fit] |  |
| CCOc1ccc(NC(=O)CN2CCN(CC(=O)Nc3ccc(C(N)=O)cc3)CC2)cc1 | active: 50.1 µM |  |
| Cc1ccc(C(=O)C(C)OC(=O)c2ccc(Cl)nc2)cc1 (stereo not drawn) | inconclusive: 89.1 µM [inhibitor, single point] |  |
| COc1ccc(N(CC(=O)Nc2nc3ccc(C)cc3s2)S(=O)(=O)c2c(C)nn(C)c2C)cc1 | inconclusive: 70.8 µM [inhibitor, single point] |  |
| CCN(CC)C(=O)Cn1cnc2c1c(=O)n(C)c(=O)n2C | active: 56.2 µM |  |
| CCC(CC)c1nnc(NC(=O)CS(=O)(=O)c2ccc(C)cc2)s1 | active: 7.94 µM |  |
| COCC(O)CNc1ccccc1 (stereo not drawn) | inconclusive: 7.08 µM [inhibitor, partial curve] |  |
| CCOc1ccc(OCC)c(Nc2nc3ccc(Cl)cc3n3cnnc23)c1 |  | inactive: 14.4% |
| CCN(CCn1cccn1)Cc1nc(-c2ccc(OC)cc2)no1 | inconclusive: 79.4 µM [inhibitor, single point] |  |
| O=C(C1CCN(Cc2cc(Cl)ccc2O)CC1)N1CCN(Cc2ccccc2)CC1 | inconclusive: 4.47 µM [inhibitor, single point] |  |
